PubChem BioAssay (NCATS)
“And” between values parts separate entries of the source, which are not always exact repeats. Equal entries are not always repeated. This is one part of the list. Further columns of the screen follow, without active or inactive calls. The list favours compounds with an active or inconclusive main result.

Assay: qHTS Assay for Lipid Storage Modulators (AID 1519)
Settings: Drosophila S3 cells, BODIPY lipid droplet/cell ratio, laser cytometry; measured here: lipid channel max response; cells loaded with oleic acid
Summary of the method: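 Cells seeded at 5,000 per well were treated with compounds over a concentration series and loaded with oleic acid (400 uM, as added). Lipid droplet fluorescence (488 nm excitation, 500-530 nm channel) was read by laser-scanning cytometry and normalized to 20 uM Triacsin C.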

| Compound | max response |
| --- | --- |
| FC(F)(F)c1ccccc1-c1nc(NC2CC2)c2ccccc2n1 | 37.9% |
| C[N+](C)(C)CCOC(N)=O | 47.7% and 7.52% |
| CC[C@@H](C)[C@H]1O[C@]2(CC[C@@H]1C)C[C@@H]1C[C@H](C/C=C(/C)[C@H](O[C@@H]3C[C@H](OC)[C@H](O[C@@H]4C[C@H](OC)[C@@H](O)[C@H](C)O4)[C@H](C)O3)[C@@H](C)/C=C\C=C3CO[C@@H]4[C@H](O)C(C)=C[C@@H](C(=O)O1)[C@]34O)O2 (tested in a mixture with another compound) | -49.3% |
| COc1cccc(-c2nccc(NCc3ccccc3)n2)c1 | 15.8% |
| N#CCCn1c(=O)c(-c2cccs2)nc2cnc(Nc3ccccc3)nc21 | -45.4% |
| COCCn1c(=O)c(CCc2ccccc2)nc2cnc(N3CCNCC3)nc21 | 50.1% |
| O=c1c(-c2ccc(F)cc2)nc2cncnc2n1Cc1ccc(F)cc1 | 13.1% |
| COc1ccccc1-c1nc(N2CCN(C)CC2)c2ccccc2n1 | 45.6% |
| COc1cccc(-c2ccc3ncnc(N4CCOCC4)c3c2)c1 | 14.8% |
| N#C/C(=C\c1ccc(O)c(O)c1)C(=O)OCCc1cccs1 | 36.1% |
| O=c1c(-c2cccs2)nc2cnc(N3CCNCC3)nc2n1-c1ccccc1 | 49.7% |
| CN(C)c1ccc(-c2cncnc2NCCc2cnc[nH]2)cc1 | 41.8% |
| COc1ncc2nc(CCc3ccccc3)c(=O)n(C)c2n1 | 33% |
| COc1ccc2c(=O)ccoc2c1 | 34.6% |
| CSc1nc(NC2CCCC2)c([N+](=O)[O-])c(NC2CCCC2)n1 | 139% |
| COc1ccc2[nH]cc(CCNc3ccnc(-c4cccnc4)n3)c2c1 | 18.9% |
| COc1ccc2[nH]cc(CCNc3ncncc3-c3ccccc3Cl)c2c1 | 13.2% |
| COc1ccc(-n2c(=O)c(CCc3ccccc3)nc3cncnc32)cc1 | 43.3% |
| c1cc(NC2CC2)nc(-c2ccoc2)n1 | 41.2% |
| O=c1cc(-c2cccc(O)c2)oc2c(O)c(O)ccc12 | 56.4% |

| Compound | max response |
| --- | --- |
| c1ccc(CNc2nc(-c3ccc4c(c3)OCO4)nc3ccccc23)cc1 | 20.2% |
| CCNc1ncc2nc(-c3cc(F)cc(F)c3)c(=O)n(Cc3cccs3)c2n1 | 20.6% |
| COCCn1c(=O)c(CCc2ccccc2)nc2cnc(Oc3ccccc3)nc21 | 35.7% |
| COc1ccc(Oc2ncc3ncc(=O)n(C4CC4)c3n2)cc1 | 25.8% |
| COc1cccc(Nc2ncc3nc(-c4cccs4)c(=O)n(-c4ccccc4)c3n2)c1 | -96% |
| COc1ccccc1-c1cc(NCc2cccs2)ncn1 | 51.2% |
| COCCn1c(=O)c(C)nc2cncnc21 | 54.1% |
| C[C@@]12CCC(OC(=O)c3ccccc3)CC1CCc1ccccc12 (stereo not given in full) | 39.2% |
| CN1CCN(c2nc(-c3ccccc3C(F)(F)F)nc3ccccc23)CC1 | 25.4% |
| NCCCCCCNS(=O)(=O)c1ccc2c(Cl)cccc2c1 | 115% |
| COc1cc2c(C=O)c3c4c(cc(OC)c(OC)c4c2cc1OC)CCN3C | 101% |
| O=c1c(-c2cccs2)nc2cnc(N3CCNCC3)nc2n1Cc1cccs1 | -71.9% |
| CN(C)c1ccc(-c2nccc(Nc3ccc(F)cc3)n2)cc1 | -1.51% |
| COc1ccc(-n2c(=O)c(C)nc3cnc(N4CCOCC4)nc32)cc1 | 38.8% |
| COc1cccc2c1C(=O)CC(c1ccccc1)O2 (stereo not given) | 149% |
| COCCn1c(=O)c(-c2cn(C)c3ccccc23)nc2cncnc21 | 33.4% |
| FC(F)(F)c1ccccc1-c1nccc(-n2ccnc2)n1 | 32.9% |
| COc1ccc(NC(=O)N2CCC3(CC2)CCN(C(=O)c2cccn2C)CC3)cc1 | 33.5% |
| COCCNc1nc(-c2ccoc2)nc2ccccc12 | 35.5% |
| CCNc1ncc2nc(-c3cccs3)c(=O)n(CCc3ccccc3)c2n1 | 7.56% |
